The record followed here is article PMC12136788.

The list shows a part of the results.

Sequences and labels used below:
T1: UNK ZnF1-3 (human, UniProt Q9C0B0 31-174)
T1 sequence: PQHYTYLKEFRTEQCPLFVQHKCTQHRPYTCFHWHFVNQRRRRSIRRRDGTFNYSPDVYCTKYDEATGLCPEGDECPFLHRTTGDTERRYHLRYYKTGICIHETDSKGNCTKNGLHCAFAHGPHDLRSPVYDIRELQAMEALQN

B1: chr4:25749455:25749456:-_ENSG00000091490_ENST00000264868|hu_hu|hu_hu_hu_mus_False|18_58 (ssRNA)
RNA: GGGAGUUCUACAGUCCGACGAUCGCACUAUGACCUCUAGAAAAAUCCACAGGGGGAAAAAAUGUAAACCAAUGUACAAAGCUAUUGCCUUCCCUGUGUGUGGAGUGUUUGUCUCAAUAUUUCAAGGAGCUGCUGGAUUUGGGACAACAGAGGAUUGAGCAUCA
B2: chr4:76721835:76721836:+_ENSG00000138768_ENST00000264904|hu_mus|hu_hu_hu_mus_True|1_88 (ssRNA)
RNA: GGGAGUUCUACAGUCCGACGAUCGUUUGGCUGGGGUUUCUGAGACGUCUGGAAUACUAACUCAUGUUUGCUAAUAAAUCCUAGUUUCUCUAUGAAAUUCUCUUUGCCAAUCCUCUUCUCUAUUAGUUGCUUUAGUUCUCUUUCCAACAGAGGAUUGAGCAUCA
B3: chr1:35579700:35579701:+_ENSG00000197056_ENST00000373330|hu_hu|FALSE|FALSE (ssRNA)
RNA: GGGAGUUCUACAGUCCGACGAUCGAACAAAGAACUGAGAGUUUUUAGAGCACUUCGGAGUUCUUUUACUUCUUUACAAAACCUAAUUAUUGAUAAAUCCAAAAAGUGUGCAUAACAAUGUAUGUAUAAAGCUCUUGGUUCUUCCAACAGAGGAUUGAGCAUCA
B4: 97049045_97049165_90_5pUTR_ENSMUSG00000001440_ENSMUST00000001479|mouse|control|control (ssRNA)
RNA: GGGAGUUCUACAGUCCGACGAUCUGCCUCUGGCCAGGCGCUCCGGCUCCCCUUCCUCCCCGCUCUCCUUCCUUCCUUCCGCCCUCCUAAUGUGCUAGGCGGCAGCAGCUGCUCCUCUGGCGGCGGGGGAGGGACCCCGGGGGCCAACAGAGGAUUGAGCAUCA
B5: chr16:17428906:17428907:+_ENSMUSG00000022765_ENSMUST00000023449|mus_mus|FALSE|FALSE (ssRNA)
RNA: GGGAGUUCUACAGUCCGACGAUCGAACAGAAGAUGGGGAUAGGGACAAUGAAGGCAACACAUUUCCGUUCUGUAUGAACAUGGAUCCUUUUCAGGGGAGAGAGCUGCCAUGUGCUCAGUGUGUGUGCAGGCAUGUCCACAAGACAACAGAGGAUUGAGCAUCA
B6: chr11:100879890:100879891:+_ENSMUSG00000019302_ENSMUST00000044721|mus_hu|FALSE|FALSE (ssRNA)
RNA: GGGAGUUCUACAGUCCGACGAUCUUGGAAAACAUUCACAUCUGGAUUUAAGUCACGAAACUGAACCUUUCCAAGUUCUCCUAAUUCACUGACACAACAAUAAGCAGCCUCUGACUGUAGAAAAAGCUGGGCCAGUGUCAUUUCCAACAGAGGAUUGAGCAUCA
B7: 141385844_141387436_256_CDS_ENSG00000113552_ENST00000311337|human|control|control (ssRNA)
RNA: GGGAGUUCUACAGUCCGACGAUCGUUCCACAUGAAGGAGUGGUAACUCUCCGGGUGGUCUCGAGGAAGGCCCACGUACUCAUCCAUGUUGAAGGUCUUCACAUAUUUAAAGGACAGGUCCCCAUUCUUAUAGUAUUCAAUCAGCAACAGAGGAUUGAGCAUCA
B8: chr9:14812383:14812384:-_ENSMUSG00000031934_ENSMUST00000164273|mus_mus|mus_mus_mus_hu_True|38_38 (ssRNA)
RNA: GGGAGUUCUACAGUCCGACGAUCAUAGCCCAGGUAGAUACACGCUAACAGUAUAAUGAUGAGUGUCAGCAGGCGGCAGCUAAUGUACUUGAUGAUUAAAUGACUAGAAUUUUUCUUUGUCUUCAAGUACUGCUCCACAAUUGGCAACAGAGGAUUGAGCAUCA
B9: chr7:65705844:65705845:+_ENSG00000169902_ENST00000304842|hu_mus|hu_hu_hu_mus_False|18_58 (ssRNA)
RNA: GGGAGUUCUACAGUCCGACGAUCAAACGGAUCUUUGUUACAUAAAUAAGGUGCCGGCUCCCCAUGUUUAACAAUGAUUUCUAGUAAGAAGGCUUGCAUGGCAGAAUCUAGCACUUCAUCAGUAACACCCGCCUCAUCCAAGCGCAACAGAGGAUUGAGCAUCA
B10: chr2:228220401:228220402:+_ENSG00000168958_ENST00000354503|hu_hu|FALSE|FALSE (ssRNA)
RNA: GGGAGUUCUACAGUCCGACGAUCUAGUGAAGCUGCAUCUACAACAGUCAGGUCAUCUGACGUUCCUUCAAUGGUUGUAUCUAUAUUUGAAAUGCCAUACAGAGAAUCAUUUCUGACCAGCUGUCCAUUUUGGCGAACAGCAUUCAACAGAGGAUUGAGCAUCA
B11: chr2:187373433:187373434:+_ENSG00000065548_ENST00000337859|hu_mus|motif|central (ssRNA)
RNA: GGGAGUUCUACAGUCCGACGAUCUGACCUAGUUUUCAUCCUCAUCAUUCUUCUAAGUCAAGAGUGUUCAAUUCCUCUUCGGGUUCAUCCAGAUCUUCGCCAGUGAACAGGUUUUCAUCAACAGGAACAGCAUCGAUGGAUCCACAACAGAGGAUUGAGCAUCA
B12: chr12:48362563:48362564:+_ENSG00000134291_ENST00000256686|hu_hu|hu_hu_hu_mus_False|68_78 (ssRNA)
RNA: GGGAGUUCUACAGUCCGACGAUCUCCGUCAAGCCCUUCGAUAGACCCUUGCGGGGGUGGUAAAAACAAUUCUAACUGGGGAAGGAAAAGAAACGCCAAAAACUUUCCAAAAAGCGGGGGUGGGGUGAGGCGGGAGGGGGAGGUCAACAGAGGAUUGAGCAUCA
B13: chr4:25749455:25749456:-_ENSG00000091490_ENST00000264868|hu_mus|FALSE|FALSE (ssRNA)
RNA: GGGAGUUCUACAGUCCGACGAUCGCACUAUGACCUCUAGAAAAAUCCACAGGGGGAAAAAAUGUAAACCAAUGUACAAUGUUAUCGCCUUCCCUGUGUGUGGAGUGUUUGUCUCAAGGCUCCUUCUAGCUGCUGGAUUUGGGACAACAGAGGAUUGAGCAUCA
B14: chr17:60770872:60770873:+_ENSG00000011028_ENST00000303375|hu_hu|hu_hu_hu_mus_True|28_98 (ssRNA)
RNA: GGGAGUUCUACAGUCCGACGAUCUCUUUAAAAAAAAUUCCUUUUUUACAAACAAUAAUAGCACAUUUCGAGAAUCAAGAACUACAAUAGAGGGUCCGCUUUGAGUUGUCCAUGUUCUCGUCCUGCACUGGGACACGGGGACUGCAACAGAGGAUUGAGCAUCA
B15: chr1:67050029:67050030:-_ENSMUSG00000026000_ENSMUST00000119559|mus_hu|FALSE|FALSE (ssRNA)
RNA: GGGAGUUCUACAGUCCGACGAUCGGAAAGCAACGGAAGCACUUAGCUUGGGUUUGAAUAUACAGAAAGGGUCAUGCAGUGAGUUGCAGGUGGCAUGCUAUCCUUUCAGAGUUCAAAUGCAGGGAACCUGGCUUUUGUGGGGACCAACAGAGGAUUGAGCAUCA
B16: chr3:148802587:148802588:-_ENSG00000071794_ENST00000310053|hu_mus|hu_hu_hu_mus_False|8_78 (ssRNA)
RNA: GGGAGUUCUACAGUCCGACGAUCUCCAACAACUUGUCCUCUCAUAGUUCCAAAUAAAACGGAAUCUUGCUCUUCAUCACUCGUUAGGAAGUCAUCUGGAGGAAUAAUGUCUUGGAAUUCAAAAUGUGGAAAGAAAGUUGAGUACAACAGAGGAUUGAGCAUCA
B17: chr11:4127340:4127341:+_ENSG00000167325_ENST00000300738|hu_mus|hu_hu_hu_mus_False|58_88 (ssRNA)
RNA: GGGAGUUCUACAGUCCGACGAUCGGCAUAGUCAGGGUGCUUCGUGGUCAAGGUUGCGGCUGUCUCAGCAGCCAGGGUAUCUAGUUCCACUGUGGUGACCCCACUAUAUAGGCCUUGGAUUACUUUCAUGGUGAUCUGAGCAGGCAACAGAGGAUUGAGCAUCA
B18: chr1:145441008:145441009:+_ENSG00000117289_ENST00000369317|hu_hu|FALSE|FALSE (ssRNA)
RNA: GGGAGUUCUACAGUCCGACGAUCGCAGGGAUCCACCUCAGUAUAAGUCGGUGGUGGCAUGAACUUGAACUCAGGGGCAUACAUAAAGAUAGGGCUGUCUUGAGAGCCAUCCAUGUCAUCUAGCAGAGGAGUGGUUGGGCUCUCCAACAGAGGAUUGAGCAUCA
B19: 3185149_3185865_1983_CDS_ENSMUSG00000046201_ENSMUST00000076734|mouse|control|control (ssRNA)
RNA: GGGAGUUCUACAGUCCGACGAUCCUUGGAACCAAUUUUAUAGGAUCCUGAACUCAGUUUCUGAAGAGCCCGAAAUGAAUCUUGUCGAUGAACCAUGCAGACAUAUGCACAGCCCCUGGGUGGAAUCAUAUUAAUGGAUUCAAUCAACAGAGGAUUGAGCAUCA
B20: chr11:77336104:77336105:-_ENSG00000074201_ENST00000525064|hu_mus|hu_hu_hu_mus_False|88_98 (ssRNA)
RNA: GGGAGUUCUACAGUCCGACGAUCCUCACACAUUGCUGUGAACAUUGCCUCCAACGCUGACUUAUCACUGGGCACAAAUCGAAAUUCAGAAAUGGGUUCAACAUCAUCAUUGUCUUCCUCAUCUUCAUCAGAGAGAGGUUCUUUCAACAGAGGAUUGAGCAUCA
B21: 53570521_53619045_831_CDS_ENSG00000100523_ENST00000323669|human|control|control (ssRNA)
RNA: GGGAGUUCUACAGUCCGACGAUCCCAAGUGCCGUCAAUAAACCACUGUCCACGCAUUACUGGUAUUUUAUCAGCCUGGUUCCAGUACACCGGGUAGCACUCUCCUUGGGUCACAUCCACCUCGUAGAGGCCGCCCCGCACGCACAACAGAGGAUUGAGCAUCA
B22: chr6:72561926:72561927:-_ENSMUSG00000056429_ENSMUST00000070524|mus_hu|FALSE|FALSE (ssRNA)
RNA: GGGAGUUCUACAGUCCGACGAUCUAAAUAAAGGGAACACAGAAGAACAAUGUCACCAAAGUGCAGGUGCAAAGCCCAAAGCAGCCCCCUACCUCUGCCAGCCCAGACCCGCCACUAAAUUCUAGAGGAGGGUGUCUCUCAGGUCAACAGAGGAUUGAGCAUCA

The assay concerns the target T1, UNK ZnF1-3. The assay can be described thus: nsRBNS (natural sequence RNA bind-n-seq); RBNS binding buffer (assumed for nsRBNS): 25 mM Tris pH 7.5, 150 mM KCl, 3 mM MgCl2, 0.01% Triton X-100, 500 ug/ml BSA, 20 U/ml SUPERase-In, 4 C; UNK is unkempt and MSI1 is Musashi-1; names of the RNAs are library labels; protein concentration not given here; high values mean tight binding.
As to B1, the binding signal turned out to be 1.5 enrichment R. The result for B2 reads 0.366 enrichment R; that for B3, 1.27 enrichment R; that for B4, 0.548 enrichment R.

In the case of B5, the binding signal worked out at 1.62 enrichment R. Then B6, with 0.651 enrichment R; and B7, with 1.13 enrichment R. B8 showed a binding signal of 1.28 enrichment R. Take B9: the binding signal is 0.454 enrichment R.

In the case of B10, the binding signal came out at 0.666 enrichment R. The result for B11 reads 1.22 enrichment R; that for B12, 2.84 enrichment R. The result for B13 reads 1.02 enrichment R. B14 came in with a binding signal of 0.86 enrichment R.

In turn, B15 displayed a binding signal of 1.45 enrichment R. Then B16, with 1.4 enrichment R; and B17, with 0.861 enrichment R; and B18, with 1.07 enrichment R. The result for B19 reads 0.914 enrichment R. Then B20, with 1.06 enrichment R. B21 yielded a binding signal of 0.851 enrichment R. The molecule B22 displayed a binding signal of 1.89 enrichment R.
